# Laboratory results: PubChem BioAssay AID1240 (Sanford-Burnham Center for Chemical Genomics, 2008)
# The whole screen tested about 50,000 compounds, of which about 800 (1.6%) showed an effect of 50% or more. The list shows a part of the results.
# Target: Bcl-2-like protein 10 (Homo sapiens) (UniProt Q9HD36)
# Assay: Phenotype converters, Bcl-B/TR3 peptide binding displacement, primary biochemical FP (AID 1240);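 further: 0% = Bcl-B with tracer peptide and DMSO and 100% = tracer peptide lacking Bcl-B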
# Settings: GST-Bcl-B / FITC-TR3 peptide fluorescence polarization; stronger effect = higher value; compound at 3.75 mg/L
# UniProt Q9HD36, sequence (Q9HD36 whole entry, looked up): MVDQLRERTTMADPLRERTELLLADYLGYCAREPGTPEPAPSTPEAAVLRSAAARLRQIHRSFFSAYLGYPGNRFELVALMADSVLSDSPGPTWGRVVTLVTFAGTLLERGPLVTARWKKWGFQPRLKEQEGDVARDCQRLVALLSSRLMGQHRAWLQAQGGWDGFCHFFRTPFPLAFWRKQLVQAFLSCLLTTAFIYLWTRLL
row,SMILES,displacement [%]
1,Cc1cccc(COc2ccc3c(oc(=O)c4ccccc43)c2C)c1,12.3
2,NC1=NC(=O)/C(=C/c2cccc(OS(=O)(=O)c3ccc4ccccc4c3)c2)S1,-35.6
3,CC(=O)c1c(N2CCN(c3ccccc3)CC2)nc(=S)n(-c2ccccc2)c1C,5.3
4,O=C(c1cc(-c2ccccc2)nc2ccccc12)N1CCCC1,4.5
5,c1ccc2sc(SCSc3nc4ccccc4s3)nc2c1,-2.8
6,COc1ccccc1N1CCN(C(=O)COc2cccc(C)c2)CC1,2.5
7,CC(C)Oc1cccc(C(=O)N2CCc3ccccc32)c1,38.7
8,COC(=O)c1c(NC(=O)C(Cl)Cl)sc2c1CCCCCC2,-5.3
9,O=C(N/C(=C\c1ccc(-c2cccc([N+](=O)[O-])c2)o1)C(=O)N1CCOCC1)c1ccccc1,0.4
10,COc1ccc(C(=O)Nc2nc(C)c(C)s2)cc1OC,-4.9
11,Cc1cccc(C(C)C)c1NC(=O)COc1ccc([N+](=O)[O-])cc1,-0.7
12,COc1ccc(C(=O)CSc2nnc(Sc3nc4ccccc4[nH]3)o2)cc1,8.3
13,CC(C)(C)c1cc(-c2ccccc2)no1,9.4
14,CCc1ccc2c(c1)C(c1ccccc1)C(=O)O2 (stereo not given),-13
15,O=C(COc1ccc(Cl)cc1Cl)NNC(=O)CN1C(=O)/C(=C/c2ccc(Cl)cc2Cl)SC1=S,48.6
16,CCOc1ccc(N(CC(=O)NCCSc2ccccn2)S(C)(=O)=O)cc1,7.8
17,COc1ccc(CCN2C(=O)CSC2c2ccc(Cl)c(Cl)c2)cc1OC (stereo not given),30.1
18,O=C(/C=C1/NC(=S)N(c2ccccc2)C1=O)c1ccc(Cl)cc1,-10.8
19,CCOc1ccc(NC(=O)c2cc(Cl)ccc2Cl)cc1,0.6
20,O=C(Nc1ccc(S(=O)(=O)N2CCCCC2)cc1)c1ccc(Cl)cc1,-2.1
21,O=C(O)C1C2C=CC(O2)C1C(=O)NCCc1ccccc1 (stereo not given),31
22,CCOC(=O)CNS(=O)(=O)c1ccc(F)cc1,-8.7
23,CCOC(=O)CSc1nc(-c2ccccc2)cc(-c2ccccc2)n1,-7.5
24,O=S(=O)(c1ccc(Cl)cc1)N1CCN(C2CCC(c3ccccc3)CC2)CC1 (stereo not given),-4.6

row,SMILES,displacement [%]
1,Brc1ccc(CSc2nnnn2-c2ccccc2)cc1,-2.9
2,O=C(O)CCCNC(=O)COc1ccccc1,8.8
3,O=C(Nc1ccccc1C(F)(F)F)C1CCCC1,-0.8
4,Cc1ccc(OCC(=O)Nc2ccc(I)cc2C)c(C)c1,13.1
5,c1ccc(-c2cc(-c3ccccc3)[nH]n2)cc1,-9.6
6,COc1ccc(/C(N)=N/OC(=O)c2cccc(Cl)c2)cc1,-3.1
7,COc1cc(/C=C2\SC(=Nc3ccc(C)c(Cl)c3)NC2=O)ccc1C,12.6
8,COc1ccccc1N(CC(=O)Nc1ccc(Br)cc1)S(=O)(=O)c1ccccc1,1.7
9,CCN(CC)c1ccc(NC(=O)COc2ccc(Cl)cc2C)cc1,5.6
10,CCOC(=O)c1ccc(NC(=O)c2ccccc2Cl)cc1,-1.6
11,CCOC(=O)c1ccc(N2NC(=O)/C(=C/C=C/c3cccc([N+](=O)[O-])c3)C2=O)cc1,10.1
12,COc1ccc(C2=C/C(=C\c3cc([N+](=O)[O-])ccc3Cl)C(=O)O2)cc1,-11.4
13,Cc1ccc(C(=O)NCCCNc2ccc(Cl)cc2[N+](=O)[O-])cc1,0.6
14,COC(=O)C1=C(C)N(C)C(C)=C(C(=O)OC)C1c1ccc(C(F)(F)F)cc1,-10.4
15,CCOC(=O)COc1ccc(C2NC(=S)NC(C)=C2C(=O)OC)cc1OC (stereo not given),0.8
16,CC(c1nc2ccccc2n1C)C(O)(c1ccccc1)c1ccccc1 (stereo not given),3.1
17,CCCOc1ccc(C(CC(=O)c2ccc(Cl)cc2)S(=O)(=O)c2ccccc2)cc1 (stereo not given),-3.2
18,CCC/C(O)=C1\C(=O)CC(C)(C)CC1=Nc1ccc(OC)cc1,6.6
19,CCOC(=O)N1CCN(C(=S)Nc2ccc3nccnc3c2)CC1,-8
20,COc1ccc(/C=N/n2c(C)nnc2C)cc1Br,9.8
21,Cc1ccc(Br)cc1S(=O)(=O)N1CCOCC1,3.2
22,O=C1SC(Nc2ccc(I)cc2)C(=O)N1c1ccccc1 (stereo not given),3.3
23,CCCOc1ccccc1/C=N/Nc1nncn1N,-11.6
24,CC(=O)Nc1c(C)c(Br)cc(C(=O)O)c1[N+](=O)[O-],8.9

row,SMILES,displacement [%]
1,O=C(CCc1ccccc1)NNC(=S)Nc1ccccc1,-24
2,O=C(COc1ccc2c3c(c(=O)oc2c1)CCCC3)OCc1ccccc1,-4.5
3,COc1cc(/C=N/NC(=O)CC(=O)NC(C)C)cc(OC)c1OC,5.9
4,O=C1S/C(=C\c2cc3c(cc2Br)OCO3)C(=O)N1c1ccccc1,-5.1
5,CCOC(=O)c1c(NC(=O)c2ccc(Br)o2)sc2c1CCCC2,7.1
6,CC(Oc1ccc2c3c(c(=O)oc2c1)CCCC3)C(=O)c1ccccc1 (stereo not given),-9.6
7,O=C1/C(=C/c2cn(-c3ccccc3)nc2-c2ccco2)SC(=S)N1C1CCS(=O)(=O)C1 (stereo not given),11.2
8,COc1ccc(N/C(=N\S(=O)(=O)c2ccc(NC(C)=O)cc2)Nc2nc(C)cc(C)n2)cc1OC,0.7
9,Cc1ccc(/C=N/Nc2nc(N3CCOCC3)nc(N3CCOCC3)n2)c(C)c1,-0.8
10,CC(=O)c1ccc(NC(=S)NC(NC(=O)c2cccc(C)c2)C(Cl)(Cl)Cl)cc1 (stereo not given),7.3
11,COc1ccc(OC)c(NC(=O)C(=O)N/N=C/c2ccc(C(=O)O)cc2)c1,12.3
12,O=[N+]([O-])c1ccc(-n2ncnc2-c2ccc(F)cc2)cc1,10.5
13,O=C(Nc1cccc2ccccc12)c1ccc(S(=O)(=O)N2CCCCC2)cc1,-8.9
14,COCCCNC(=O)C(=O)Nc1cc(C)ccc1OC,-4.5
15,CC1=C(C(=O)OCCOc2ccccc2)Sc2ccccc2N1,-2
16,COc1cc(OC)c(OC)cc1/C=N/NC(=O)c1cc(-c2ccc(Cl)cc2)n[nH]1,-2.6
17,O=C(N/C(=C/c1ccco1)C(=O)N1CCCCC1)c1ccc(Cl)cc1,22.6
18,O=[N+]([O-])c1ccc(S(=O)(=O)Nc2cc(Cl)cc(Cl)c2)cc1,18.6
19,Cc1cc(C(=O)Nc2sc(C(=O)OC(C)C)c(C)c2C(N)=O)ccc1[N+](=O)[O-],31.5
20,Cc1cc(NC(=O)c2cc3ccccc3oc2=O)ccc1NC(=O)c1ccco1,14
21,O=C1c2cccc3cccc(c23)C(=O)N1/N=C/c1ccc(O)cc1,13.3
22,COc1ccc(S(=O)(=O)N/N=C/c2ccc(OCCN3CCOCC3)c(OC)c2)cc1,4.4
